# Reference: the supplement of paper PMC10670038
# Structures can show the parent of a compound that is named as a salt. ± gives the standard deviation of the averaged measurements. The full ranking holds about 2,000 compounds; the median of “relative cell viability vs DMSO, compound alone” is about 1.1, and the lowest 2% start at about 0.29. The list shows a part of the results.
# Tested on: TE10
# Assay: relative cell viability vs DMSO, compound alone (fraction); TE10 is an esophageal squamous carcinoma line; higher = less cytotoxic
# Conditions: 2 µM; 48 h
# Description: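 TE10 ESCC cells (1,000/well, 384-well plates) were treated with Selleck bioactive library compounds at 2 uM alone for 48 h. Viability was read by CellTiter-Glo and expressed relative to DMSO wells. Two technical replicates (A, B).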
row,Compound,relative cell viability
1,CC[C@@H]1/C=C(\C)C[C@H](C)C[C@H](OC)[C@H]2O[C@@](O)(C(=O)C(=O)N3CCCC[C@H]3C(=O)O[C@H](/C(C)=C/[C@@H]3CC[C@@H](O)[C@H](OC)C3)[C@H](C)[C@@H](O)CC1=O)[C@H](C)C[C@@H]2OC [Ascomycin (FK520)],1.15 ± 0.13
2,OC[C@H]1O[C@@H](c2ccc(Cl)c(Cc3ccc(O[C@H]4CCOC4)cc3)c2)[C@H](O)[C@@H](O)[C@@H]1O,1.12 ± 0.012
3,Cc1nc(C#Cc2ccnc(Cl)c2)c(C)n1-c1ccc(OC(F)(F)F)cc1,1.2 ± 0.07
4,CN(C)c1cccc(-c2c3c(=O)n(-c4ccccc4Cl)[nH]c3cc(=O)n2C)c1,0.959 ± 0.036
5,COC(=O)C1=C(C)NC(C)=C(C(=O)OCCN(C)Cc2ccccc2)C1c1cccc([N+](=O)[O-])c1 (stereo not given) [Nicardipine HCl],1.05 ± 0.056
6,COCCOc1ccc2c(c1)ncn2-c1ccc2cccc(N3CCC(N)CC3)c2n1,0.876 ± 0.012
7,Cc1cc(Nc2cc(N3CCN(C)CC3)nc(/C=C/c3ccccc3)n2)n[nH]1 [ENMD-2076 L-(+)-Tartaric acid],0.808 ± 0.069
8,Cc1cc(Nc2cc(N3CCN(C)CC3)nc(/C=C/c3ccccc3)n2)n[nH]1,0.856 ± 0.03
9,Cc1cc(-c2ccc(CC(=O)Nc3ccc(-c4cccnc4)cc3)cc2)ccn1,1.083 ± 0.0063
10,COc1ccc(C2CC(c3ccccc3)=NN2c2ccc(S(N)(=O)=O)cc2)cc1 (stereo not given),1.09 ± 0.023
11,CCOc1cc(N)c(Cl)cc1C(=O)NCC1CN(Cc2ccc(F)cc2)CCO1 (stereo not given) [Mosapride Citrate],1.01 ± 0.018
12,COC(=O)[C@H](CCSC)NC(=O)c1ccc(NC[C@@H](N)CS)cc1-c1ccccc1,1.06 ± 0.041
13,Cc1cccc(Nc2ccccc2C(=O)O)c1C [Mefenamic Acid],1.139 ± 0.0043
14,CCC(C)n1ncn(-c2ccc(N3CCN(c4ccc(OCC5COC(Cn6cncn6)(c6ccc(Cl)cc6Cl)O5)cc4)CC3)cc2)c1=O (stereo not given) [Itraconazole],1.077 ± 0.0012
15,C[C@H]1[C@H](OC(=O)CCC(=O)O)O[C@@H]2O[C@@]3(C)CC[C@H]4[C@H](C)CC[C@@H]1[C@@]24OO3 [Artesunate],0.964 ± 0.043
16,CC(NC(=O)Cc1cc(F)cc(F)c1)C(=O)NC1C(=O)N(C)c2ccccc2-c2ccccc21 (stereo not given),1.1 ± 0.025
17,Cc1ccc(-c2c(-c3nn(C)c4ncnc(N5CC[C@H](N6CCCCC6)C5)c34)cnn2C)cc1,0.979 ± 0.061
18,O=C1c2c(O)cc(O)cc2O[C@H](c2cc(O)c(O)c(O)c2)[C@H]1O [Dihydromyricetin],0.741 ± 0.029
19,O=C1OC(CN2CCOCC2)CN1/N=C/c1ccc([N+](=O)[O-])o1 (stereo not given) [Furaltadone HCl],1.238 ± 0.0058
20,CC(C)(C(=O)NCC(F)(F)C(F)(F)F)C(=O)N[C@@H]1C(=O)Nc2ccccc2-c2ccccc21,0.867 ± 0.038

row,Compound,relative cell viability
1,Cc1cc(C)c(CNC(=O)c2cc(-c3ccc(N4CCN(C)CC4)nc3)cc3c2c(C)cn3C(C)C)c(=O)[nH]1,1.09 ± 0.051
2,O=C1CCC(N2C(=O)c3ccccc3C2=O)C(=O)N1 (stereo not given) [Thalidomide],1.19 ± 0.018
3,c1cn2cc(-c3ccc4cn[nH]c4c3)nc(Nc3ccc(N4CCOCC4)cc3)c2n1,0.7107 ± 0.0043
4,C=CCn1c(=O)c2cnc(Nc3ccc(N4CCN(C)CC4)cc3)nc2n1-c1cccc(C(C)(C)O)n1,0.335 ± 0.015
5,Clc1ccc(C(Cn2ccnc2)OCc2csc3c(Cl)cccc23)c(Cl)c1 (stereo not given) [Sertaconazole nitrate],1.05 ± 0.07
6,CC1(C)S[C@@H]2[C@H](NC(=O)Cc3ccccc3)C(=O)N2[C@H]1C(=O)O [Penicillin G Sodium],1.134 ± 0.0036
7,CCCCc1nc(Cl)c(CO)n1Cc1ccc(-c2ccccc2-c2nnn[nH]2)cc1 [Losartan Potassium (DuP 753)],1.19 ± 0.015
8,O=C(/C=C/C=C/c1ccc2c(c1)OCO2)N1CCCCC1 [Piperine],1.09 ± 0.04
9,O=C(O)C(S)=Cc1c[nH]c2ccc(F)cc12,1.22 ± 0.024
10,O=c1c2ccccc2nc2n1CCc1c-2[nH]c2ccccc12 [Rutaecarpine],1.03 ± 0.095
11,CCC(=O)OCC(=O)[C@@]1(OC(=O)CC)[C@@H](C)C[C@H]2[C@@H]3CCC4=CC(=O)C=C[C@]4(C)[C@@]3(Cl)[C@@H](O)C[C@@]21C [Beclomethasone dipropionate],0.879 ± 0.011
12,COc1ccccc1N1CCN(CCCNc2cc(=O)n(C)c(=O)n2C)CC1 [Urapidil HCl],1.07 ± 0.017
13,O=C(Nc1cccc(Nc2ncc(Br)c(NCCc3cnc[nH]3)n2)c1)N1CCCC1,1.3 ± 0.1
14,CN(C)CCCn1cc(C2=C(c3c[nH]c4ccccc34)C(=O)NC2=O)c2ccccc21,1.13 ± 0.069
15,COc1nc(N)nc2c1ncn2[C@@H]1O[C@H](CO)[C@@H](O)[C@@H]1O [Nelarabine],1.11 ± 0.05
16,O=C1NC(=O)[C@@H](c2cn3c4c(cccc24)CCC3)[C@@H]1c1c[nH]c2ccccc12 [Tivantinib (ARQ 197)],0.8611 ± 0.0068
17,CCc1cnn2c(NCc3ccc[n+]([O-])c3)cc(N3CCCC[C@H]3CCO)nc12,0.5705 ± 0.0054
18,C[C@H]1Oc2cc(cnc2N)-c2c(nn(C)c2C#N)CN(C)C(=O)c2ccc(F)cc21,0.94 ± 0.044
19,C[C@@]1(c2cc(-c3cncnc3)c(F)cc2F)CCSC(N)=N1,0.991 ± 0.023
20,CC(=O)SCC(Cc1ccccc1)C(=O)NCC(=O)OCc1ccccc1 (stereo not given) [Racecadotril],1.16 ± 0.13
